The values that follow come from PubChem BioAssay AID1745853 (National Center for Advancing Translational Sciences (NCATS), 2022).

Some of the results follow. Shown are side measurements of this screen, not its main read-out; they come without a call.

Assay in all cases: Primary Screen for Target Class Profiling of Small Molecule Inhibitors of Methyltransferases
Experiment [1] deals with Glycine N-methyltransferase (Homo sapiens) (UniProt Q14749). Conditions: purified enzyme, MTase-Glo SAH luminescence; measured here: GNMT inhibition; at 40 µM; stronger effect = lower value. A digest of the protocol:
(§1)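 Each enzyme was reacted with SAM and its substrate, with compounds tested once at 40 uM; SAH formed was read by MTase-Glo luminescence.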

In experiment [2] the target is Guanidinoacetate N-methyltransferase (Homo sapiens) (UniProt Q14353). The conditions noted are these: purified enzyme, MTase-Glo SAH luminescence; measured here: GAMT inhibition; at 40 µM; stronger effect = lower value. Summed up: as §1
Experiment [3] addresses Histamine N-methyltransferase (Homo sapiens) (UniProt P50135). Conditions: purified enzyme, MTase-Glo SAH luminescence; measured here: HNMT inhibition; at 40 µM; stronger effect = lower value. Summed up:
as §1

The target of experiment [4] is Nicotinamide N-methyltransferase (Homo sapiens) (UniProt P40261). Conditions: purified enzyme, MTase-Glo SAH luminescence; measured here: NNMT inhibition; at 40 µM; stronger effect = lower value. Summed up: as §1
Experiment [5] concerns the target Phenylethanolamine N-methyltransferase (Homo sapiens) (UniProt P11086). The conditions noted are these: purified enzyme, MTase-Glo SAH luminescence; measured here: PNMT inhibition; at 40 µM; stronger effect = lower value. Summed up: as §1
% is scaled to controls: 0 for no effect and ±100 for the full control effect.

Turning to `COc1cc(NC(=O)O[C@@H]2CC[C@]3(C)C(CC[C@@H](O)[C@H]3CC(=O)N3CC[C@H](NC(C)=O)C3)[C@]2(C)CO)cc(OC)c1` (some centres not stated), the activity change, negative = inhibition in experiment [1] was -3.67%; in experiment [2], 0.219%; in experiment [3], 1.6%; in experiment [4], -5.47%; in experiment [5] it was 1.63%.

In the case of `Cc1cc(C)cc(NC(=O)CCc2nnc3n(Cc4ccccc4)c(=O)c4ccccc4n23)c1`, the activity change, negative = inhibition in experiment [1] is -6.82%; in experiment [2], 4.59%; in experiment [3], 1.37%; in experiment [4], 5.43%; in experiment [5] it was -3.24%.

On to `O=C(NCc1ccc(F)cc1)c1ccc2c(=O)nc3c(-c4ccc(F)cc4)n[nH]n3c2c1`, for which the activity change, negative = inhibition was -12.9% in experiment [1]; 0.753% in experiment [2]; -6.6% in experiment [3]; -3.72% in experiment [4]; -4.58% in experiment [5].

Regarding `Cc1cc(Cl)ccc1COc1ccnn1-c1cc(C(=O)O)ccn1`, the activity change, negative = inhibition in experiment [1] is -10.7%; in experiment [2], -0.398%; in experiment [3], -7.88%; in experiment [4], -18%; in experiment [5] it was -10.6%.

Regarding `CCCn1c(=O)c2ccc(C(=O)NC3CCCC3)cc2n2c(SCC(=O)NCc3ccccc3)nnc12`, the activity change, negative = inhibition in experiment [1] is -0.468%; in experiment [2], 4.38%; in experiment [3] it was 2.53%; in experiment [4], -2.97%; in experiment [5], 4.24%.

Turning to `OCC(CO[C@@H]1O[C@H](CO)[C@@H](O)[C@H](O)[C@H]1O)c1ccc2c(c1)OCO2` (some centres not stated), the activity change, negative = inhibition in experiment [1] is 3.42%; in experiment [2], 0.673%; in experiment [3] it was 3.68%; in experiment [4] it was -8.64%; in experiment [5], -6.24%.

`Cc1ccc(S(=O)(=O)c2nnn3c2nc(NCCC(C)C)c2ccccc23)cc1C`: the activity change, negative = inhibition in experiment [1] is -5.96%; in experiment [2] it was -0.984%; in experiment [3] it was -7.13%; in experiment [4], -0.449%; in experiment [5], -10.7%.

`Cn1nc2n(C)c(=O)c3ccc(C(=O)NC4CCCCC4)cc3n2c1=O`: the activity change, negative = inhibition in experiment [1] is -8.82%; in experiment [2] it was -5.39%; in experiment [3], 5.93%; in experiment [4], -13.2%; in experiment [5], -7.31%.

For the compound `NC(=O)NCCCC(NC(=O)Cc1ccccc1)C(=O)O` (configuration not stated), the activity change, negative = inhibition was 3.26% in experiment [1]; -0.84% in experiment [2]; 9.38% in experiment [3]; -12.7% in experiment [4]; 5.65% in experiment [5].

As for `CCOC(=O)c1cccc(NCC2=CC(C)(C)Oc3ccc(OC)cc32)c1`, the activity change, negative = inhibition is -5.09% in experiment [1]; -1.77% in experiment [2]; -1.54% in experiment [3]; -3.16% in experiment [4]; -5.06% in experiment [5].

Take `O=C(CCn1ccc2cc(S(=O)(=O)N3CCCCC3)ccc21)N1CCC(N2CCCCC2)CC1`: the activity change, negative = inhibition in experiment [1] is 1.4%; in experiment [2], 4.05%; in experiment [3], -23%; in experiment [4], -0.496%; in experiment [5] it was -1.86%.

Consider `O=C(Cn1nc2c(cc1=O)CCCC2)N1CCOCC1`, for which the activity change, negative = inhibition in experiment [1] was -0.824%; in experiment [2], -0.374%; in experiment [3], -0.021%; in experiment [4], -4.15%; in experiment [5] it was 0.483%.

For `Cc1ccc(NC(=O)N2CCn3cccc3C2Cc2ccccc2)cc1` (configuration not stated), the activity change, negative = inhibition in experiment [1] was -7.49%; in experiment [2], 0%; in experiment [3] it was -1.78%; in experiment [4] it was -5.34%; in experiment [5] it was -4.26%.

For `CC(NC(=O)CCc1nc2ccccc2c(=O)[nH]1)c1ccccc1` (configuration not stated), the activity change, negative = inhibition in experiment [1] was -1.25%; in experiment [3], -4.41%.

`COC(=O)c1ncn2c1C(=O)N(c1ccc(F)cc1)C(C)(C(=O)NCc1ccccc1)C2` (configuration not stated): the activity change, negative = inhibition was -9.96% in experiment [1]; 0.535% in experiment [2]; -3.11% in experiment [3]; -3.65% in experiment [4]; -4.82% in experiment [5].

As for `COc1nc(-c2ccc3c(c2)OCO3)n(-c2ccc(NC(=O)CSc3ccccc3)cc2)n1`, the activity change, negative = inhibition is -2.71% in experiment [1]; -9.09% in experiment [2]; -1.1% in experiment [3]; -31.8% in experiment [4]; -6.28% in experiment [5].

With `Cc1cccc(CN2CCCn3nc(C(=O)NC(C)Cc4ccco4)cc3C2=O)c1` (configuration not stated), the activity change, negative = inhibition in experiment [1] was 1.44%; in experiment [2], 0%; in experiment [3], 8.8%; in experiment [4], -2.69%; in experiment [5], 3.65%.

Turning to `CCCn1c(=O)c2ccc(C(=O)NC3CCCC3)cc2n2c(SCC(=O)Nc3ccc(C)cc3)nnc12`, the activity change, negative = inhibition in experiment [1] turned out to be 5.68%; in experiment [2], 0%; in experiment [3], 6.76%; in experiment [4], 4.74%; in experiment [5], 4.29%.

As to `C=CCn1c(=O)c2ccc(C(=O)NC(C)C)cc2n2c(=O)n(CC(=O)NCc3ccc(C)cc3)nc12`, the activity change, negative = inhibition is 8.43% in experiment [1]; 0.172% in experiment [2]; 9.98% in experiment [3]; 4.86% in experiment [4]; 7.47% in experiment [5].

Consider `CCCOc1ccc(C2NC(C(=O)O)Cc3c2[nH]c2ccccc32)cc1OC` (configuration not stated), for which the activity change, negative = inhibition was -14.9% in experiment [1]; 1.96% in experiment [2]; 3.63% in experiment [3]; 3.12% in experiment [4]; -2.95% in experiment [5].
